Measured values as given in PubChem BioAssay AID686970 (National Center for Advancing Translational Sciences (NCATS), 2013).
Out of some 360,000 compounds screened, about 6,000 (1.7%) were called active. This list was built around the results that the source calls inconclusive (neither active nor inactive); the mix of calls is not that of the screen. Calls come from the whole dose curve; as a rule, active = well fitted cell-killing curve with a large enough effect; inconclusive = small, poorly fitted or top-dose-only effect, or effect the other way; inactive = flat fitted curve, though single readings scatter. No potency is given beside an inconclusive call; the fits are too rough.

assay: qHTS for induction of synthetic lethality in tumor cells producing 2HG: qHTS for the HT-1080-NT fibrosarcoma cell line; conditions: HT-1080-NT fibrosarcoma viability, CellTiter-Glo ATP luminescence, 48 h; activity, negative = less viability: at 46.1 µM (top of the series) unless noted;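 note: NT is the 2HG producing partner of a matched IDH1 knockdown line; nearly all actives have a fitted effect of over 55% in size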;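 for activity, negative = less viability: 0% = DMSO-treated cells and -100% = media-only wells without cells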
Outline: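 Compounds were tested in concentration-response format on HT-1080-NT cells for 48 hours at 37 degrees C. Cell viability came from CellTiter-Glo luminescence; curves were classified by r2, response magnitude and activity.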
Potency is the fitted concentration of half-maximal effect; tags give direction and shape of the fitted curve.

Row | SMILES | Potency | activity, negative = less viability
1 | CCN(CC)CCNc1nc(SC)nc2sc3c(c12)CCN(C)C3 | inconclusive [cytotoxic, full curve] | 
2 | CCCn1c(SCC(=O)NCCc2ccccc2)nnc1C(C)C | inconclusive [rising, single point] | 
3 | CN(CC(=O)Nc1nc2ccc(F)cc2s1)S(=O)(=O)c1ccc(Cl)cc1 | inconclusive [cytotoxic, single point] | 
4 | Cc1cc(NCCN2CCOCC2)n2nc(C)c(-c3ccccc3)c2n1 | inactive | 
5 | CC[C@]12CCCN3CCc4c(n(c5ccccc45)C(=O)C1)[C@@H]32 | inconclusive [rising, single point] | 
6 | C[C@@H]1COC(=O)[C@@H](CC(=O)OC(C)(C)C)C/C=C\C[C@@H](CC(=O)N[C@@H](CO)Cc2ccccc2)C(=O)N1 | inactive | 
7 | O=C(CP(=O)(c1ccccc1)c1ccccc1)Nc1cccc(CP(=O)(c2ccccc2)c2ccccc2)c1 | inconclusive [cytotoxic, single point] | 
8 | N#C/C(=C/c1ccc(N2CCOCC2)o1)C(=O)Nc1ccccc1 |  | inconclusive: 11.7%
9 | CN1CCc2cccc3c2C1Cc1ccc(O)c(O)c1-3 (configuration not stated) | active: 23.1 µM | 
10 | Oc1oc(-c2ccccc2)nc1C=NCc1ccccc1 | inconclusive [cytotoxic, single point] | 
11 | CCN(CC)CCNC(=O)c1ccc2c(c1NCCO)C(=O)c1ccccc1C2=O | inconclusive [cytotoxic, full curve, poor fit] | 
12 | CC1CCCC(C)N1C(=O)CSc1ccc(-c2ccc3c(c2)OCCO3)nn1 (configuration not stated) | inconclusive [rising, single point] | 
13 | O=c1[nH]c(-c2ccccn2)nc2sc(-c3ccccc3)cc12 |  | inconclusive: -3.21% [cytotoxic]
14 | CCOc1cccc(C(=O)NC(=S)Nc2ccc(N3CCN(CC)CC3)cc2)c1 | inconclusive [cytotoxic, single point] | 
15 | O=C(NCCn1cc(SCc2ccc(F)cc2)c2ccccc21)c1ccccc1F | inconclusive [cytotoxic, single point] | 
16 | CC#CCOC(=O)c1c(C)nc2sc3c(c2c1N)CCC(O)C3 (configuration not stated) | active: 23.1 µM | 
17 | Cc1cccc(Oc2c([N+](=O)[O-])c(=O)n(C)c3ccccc23)c1 | inconclusive [cytotoxic, single point] | 
18 | CCc1nc2ccc(C(=O)N3CCN(c4ccccc4)CC3)cn2c1N(C)CCCc1ccccc1 | inconclusive [cytotoxic, single point] | 
19 | Cc1ccccc1CSCCNC(=S)Nc1ccccc1 | inconclusive [cytotoxic, single point] | 
20 | COc1ccc(NC(=O)CSc2nnc(Cc3cccn3C)n2CCc2ccccc2)c(OC)c1 | inconclusive [cytotoxic, single point] | 
21 | C[C@H](CO)N1C[C@H](C)[C@@H](CN(C)Cc2ccncc2)Oc2c(NC(=O)Cc3ccccc3)cccc2C1=O | inconclusive [cytotoxic, partial curve] | 
22 | CCCCC1=CC2=C(c3ccco3)C(=O)C(C)(OC(=O)c3ccc(OC)cc3)C(=O)C2=CN1CCOC (configuration not stated) | inactive | 
23 | Cc1onc(-c2ccccc2)c1C(=O)Nc1sc2c(c1C#N)CCC(C)C2 (configuration not stated) | active: 12.6 µM | 

Row | SMILES | Potency | activity, negative = less viability
24 | CCOC(=O)C1(CC2CCCCO2)CCN(Cc2cc3ccccc3[nH]2)CC1 (configuration not stated) |  | inconclusive: -32% [cytotoxic]
25 | Cc1ccc(C(=O)CC2(O)C(=O)N(C)c3ccccc32)s1 (configuration not stated) | inactive | 
26 | C/C(=N/NC(=O)c1ccc(C)s1)c1cccc(NC(=O)COc2ccc(Cl)cc2Cl)c1 | inactive | 
27 | NC(c1csc(NC(=O)Nc2cccc(Cl)c2)n1)c1ccccc1Cl (configuration not stated) | inconclusive [cytotoxic, single point] | 
28 | Cc1ccc([C@H]2C[C@H](O)[C@@H](n3cc(COC(=O)c4ccccc4)nn3)CN2Cc2cccs2)cc1 | inconclusive [cytotoxic, single point] | 
29 | CN(CC(=O)NCC1CCCCC1)S(=O)(=O)c1ccc(Cl)cc1 |  | inconclusive: 30.6%
30 | CN1C(C(=O)Nc2ccc(F)cc2F)=CC(c2cccs2)=NS1(=O)=O | inactive | 
31 | COc1cc(/C=N/NC(=O)CN2CCCCC2)ccc1OCc1ccc(Br)cc1 | inconclusive [cytotoxic, single point] | 
32 | Cc1cccc(NC(=S)N/N=C2/CCCCc3ccccc32)c1 | inactive | 
33 | Cc1ccc(-c2nn3c(C)nnc3c3ccccc23)cc1S(=O)(=O)NC(C)c1ccccc1 (configuration not stated) | inconclusive [cytotoxic, partial curve] | 
34 | CCC(C(=O)NCCC(C)C)n1ccc2cc(S(=O)(=O)N3CCCCC3)ccc21 (configuration not stated) | inconclusive [cytotoxic, partial curve] | 
35 | COc1cc2nc(N(CCCN(C)C)C(=O)c3ccc(S(=O)(=O)N4CCc5ccccc54)cc3)sc2cc1OC | inconclusive [cytotoxic, single point] | 
36 | CCOCCN1CCN(c2c(CC)c(C)nc3cc(-c4cc(OC)cc(OC)c4)nn23)CC1 | inconclusive [cytotoxic, single point] | 
37 | Cc1ccc(NC(=S)NNc2ncc(C(F)(F)F)cc2Cl)c(C)c1 | inconclusive [cytotoxic, single point] | 
38 | CC(=O)c1cccc(OCc2cc(C(=O)N(C)Cc3cnccn3)no2)c1 | inactive | 
39 | Clc1cccc(Cc2c(-c3ccco3)nc3c4ccccc4ccn23)c1 | inconclusive [cytotoxic, single point] | 
40 | COc1ccc(C(=O)N2CCN(c3ccc([N+](=O)[O-])c(NCCc4ccc(OC)c(OC)c4)c3)CC2)cc1 | active: 1.16 µM | 
41 | O=C1Nc2ccccc2-n2nnnc2C1N1CCN(c2cccc(C(F)(F)F)n2)CC1 (configuration not stated) | inconclusive [cytotoxic, single point] | 
42 | CN1CCN(C(=O)c2ccc3c(c2)N(Cc2ccc(F)cc2)C(=O)c2ccccc2S3=O)CC1 (configuration not stated) | inactive | 
43 | C[C@@]12C(=O)Nc3ccc(Br)cc3C(=O)N1[C@H]1c3ccccc3OC[C@@H]1[C@@H]2c1ccccc1 | inactive | 
44 | Cc1nc([N+](=O)[O-])c(Br)n1CC(=O)c1ccccc1 | inconclusive [cytotoxic, single point] | 
45 | Cc1cc(O)c(Oc2cc(C)cc(O)c2O)c(O)c1 | inconclusive [cytotoxic, full curve] | 
46 | CN(C(=O)COC(=O)/C=C/c1cccc([N+](=O)[O-])c1)C1CCS(=O)(=O)C1 (configuration not stated) | active: 23.1 µM | 

Row | SMILES | Potency | activity, negative = less viability
47 | Cn1cc(C(c2ccccn2)c2cn(C)c3ccccc23)c2ccccc21 | inconclusive [cytotoxic, single point] | 
48 | CNc1nc(Nc2ccc(C)c(Cl)c2)nc(N)c1[N+](=O)[O-] | inconclusive [cytotoxic, single point] | 
49 | CCOC(=O)Cn1c(S(=O)(=O)Cc2ccc(Cl)cc2)nc(-c2ccccc2)c1-c1ccccc1 | inconclusive [cytotoxic, single point] | 
50 | CC(=O)CCc1oc2ccc([N+](=O)[O-])cc2c1-c1ccc(C)o1 | inactive | 
51 | O=C(C1=C[C@H](c2csc3ccccc23)C[C@H](OCCCCO)O1)N1CCN(Cc2ccccc2)CC1 | inactive | 
52 | CCOC(=O)C(C)N1N=C(/C=C/c2ccc(OC)cc2)CCC1=O (configuration not stated) | inactive | 
53 | O=C(Nc1ccc(-c2csc(Nc3cccc(C(F)(F)F)c3)n2)cc1)c1cccc(C(F)(F)F)c1 | inconclusive [cytotoxic, single point] | 
54 | C=C1CCC[C@]2(C)C[C@H]3OC(=O)C(CNCC(C)C)[C@H]3CC12 (some centres not stated) | inconclusive [cytotoxic, single point] | 
55 | O=S(=O)(Nc1nc2ccccc2nc1Cl)c1cccc(C(F)(F)F)c1 | inconclusive [cytotoxic, single point] | 
56 | C=C(C)Cn1c(N2CCC(Cc3ccccc3)CC2)nc2c1c(=O)[nH]c(=O)n2C | inconclusive [cytotoxic, single point] | 
57 | O=C(NCc1cccnc1)C1CCN(c2ccc(S(=O)(=O)N3CCOCC3)cc2Cl)CC1 | inconclusive [cytotoxic, single point] | 
58 | O=C(Nc1cccc(F)c1)C1CCCN(S(=O)(=O)c2ccc(-n3cnnn3)cc2)C1 (configuration not stated) | inactive | 
59 | COc1ccc(C(=O)N/C(=C\c2ccc(-c3cccc([N+](=O)[O-])c3)o2)C(=O)NCCCN2CCOCC2)cc1 | inconclusive [cytotoxic, partial curve] | 
60 | O=C(C1=NN[C@@H]2C(=O)N(Cc3ccccc3)C(=O)[C@H]12)c1ccc([N+](=O)[O-])cc1 | inactive | 
61 | CCOc1ccccc1C(=O)N/N=C/c1coc2ccc(C)cc2c1=O | inconclusive [cytotoxic, partial curve] | 
62 | Cc1ccccc1CC(=O)N1CCCC(CCC(=O)N2CCN(c3ccccn3)CC2)C1 (configuration not stated) | inactive | 
63 | COc1cccc(/C=N/n2c(SC)nnc2-c2ccccc2)c1O | inconclusive [cytotoxic, single point] | 
64 | CCCOC(=O)c1ccc(Oc2c(-c3ccc(OCC)cc3O)n[nH]c2C)cc1 | inconclusive [cytotoxic, single point] | 
65 | Cc1ccc(/C=C/C(=O)c2c(C)cc(C)[nH]c2=O)cc1 | inconclusive [cytotoxic, single point] | 
66 | CCCN(CC1CC1)C(=O)CSc1ncnc2sccc12 | inactive | 
67 | COc1ccc(-c2cn(Cc3ccc(C(=O)c4ccccc4)cc3)nn2)cc1 | inconclusive [cytotoxic, partial curve] | 
